Test results reported in PubChem BioAssay AID588579 (National Center for Advancing Translational Sciences (NCATS), 2011).
Among all 400,000 compounds or so, about 2,200 (0.55%) were called active. Inconclusive means that the source gave no clear call. Such entries were picked first, then a sample of the others. Calls come from the whole dose curve; as a rule, active = well fitted inhibition curve with a large enough effect; inconclusive = small, poorly fitted or top-dose-only effect, or another doubt; inactive = no such curve, though single readings can be large or run the other way. Where the call is inconclusive, the potency comes from a doubtful curve fit.

Target: DNA polymerase kappa (Homo sapiens) (UniProt Q9UBT6)
Experiment: qHTS for Inhibitors of Polymerase Kappa
Settings: purified Pol kappa, fluorescent DNA synthesis assay, 10 min; series mostly up to 107 µM
Method in brief: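 10 nM Pol kappa preincubated 15 min at room temperature with compounds, then reaction started with substrate at 50 nM final. Fluorescence read kinetically at 0 and 10 min; buffer-only wells served as negative control.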
% is set by controls: 0 for no effect and ±100 for the full control effect; potency is the fitted concentration of half-maximal effect; tags give direction and shape of the fitted curve.

Sequence of UniProt Q9UBT6 (Q9UBT6 whole entry, looked up): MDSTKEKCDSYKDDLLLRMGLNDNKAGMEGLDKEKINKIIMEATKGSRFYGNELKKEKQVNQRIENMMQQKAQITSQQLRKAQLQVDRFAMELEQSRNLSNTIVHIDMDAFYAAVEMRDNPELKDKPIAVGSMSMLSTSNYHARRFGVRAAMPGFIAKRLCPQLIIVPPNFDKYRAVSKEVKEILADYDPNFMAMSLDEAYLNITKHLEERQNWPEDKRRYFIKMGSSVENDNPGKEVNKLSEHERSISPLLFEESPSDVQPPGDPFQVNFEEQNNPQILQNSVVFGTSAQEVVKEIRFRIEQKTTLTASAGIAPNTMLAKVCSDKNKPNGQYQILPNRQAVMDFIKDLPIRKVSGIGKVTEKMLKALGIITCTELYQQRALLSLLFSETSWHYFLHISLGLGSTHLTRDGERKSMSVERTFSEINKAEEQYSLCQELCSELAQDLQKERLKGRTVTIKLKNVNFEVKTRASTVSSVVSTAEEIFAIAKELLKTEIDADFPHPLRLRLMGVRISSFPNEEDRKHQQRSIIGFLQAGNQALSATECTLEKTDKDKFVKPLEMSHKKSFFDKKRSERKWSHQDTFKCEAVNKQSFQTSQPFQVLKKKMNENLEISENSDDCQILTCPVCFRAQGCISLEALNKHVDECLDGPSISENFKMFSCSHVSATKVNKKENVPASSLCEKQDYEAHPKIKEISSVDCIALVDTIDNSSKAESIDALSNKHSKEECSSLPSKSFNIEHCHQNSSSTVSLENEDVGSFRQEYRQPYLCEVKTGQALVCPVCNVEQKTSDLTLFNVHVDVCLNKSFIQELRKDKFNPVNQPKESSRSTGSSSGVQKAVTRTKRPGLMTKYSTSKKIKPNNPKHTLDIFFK

Row | SMILES | Potency | activity, negative = inhibition
1 | O=C(Nc1ccc(S(=O)(=O)Nc2nccs2)cc1)c1cc(-c2ccncc2)nc2ccccc12 | inconclusive: 44.7 µM [inhibitor, partial curve, poor fit] | –
2 | CC(=O)Nc1cc(NC(C)=O)cc(C(=O)N2CCCC3CCCCC32)c1 (stereo not given) | active: 79.4 µM | –
3 | O=C(CSc1nc(=O)n(Cc2ccccn2)c2c1CCC2)Nc1ccccc1 | inactive | –
4 | CSCC[C@H](NC(=O)[C@H](Cc1c[nH]c2ccccc12)NC(=O)CNC(=O)[C@H](Cc1ccc(O)cc1)NC(=O)[C@H](C)NC(=O)[C@H](CCC(=O)O)NC(=O)[C@H](CCC(=O)O)NC(=O)[C@H](CCC(=O)O)NC(=O)[C@H](CCC(=O)O)NC(=O)[C@H](CCC(=O)O)NC(=O)[C@H](CC(C)C)NC(=O)[C@H](Cc1c[nH]c2ccccc12)NC(=O)[C@@H]1CCCN1C(=O)CNC(=O)[C@@H]1CCC(=O)N1)C(=O)N[C@@H](CC(=O)O)C(=O)N[C@@H](Cc1ccccc1)C(=O)NCC(=O)O | inconclusive: 21.2 µM [inhibitor, single point] | –
5 | O=C(N/N=C/c1cc(Br)c(Br)o1)c1ccc2c(c1)OCCO2 | inconclusive: 56.2 µM [inhibitor, partial curve, poor fit] | –
6 | O=C(CCS(=O)(=O)c1ccccc1)Nc1ccc2c(c1)OCO2 | inconclusive: 89.1 µM [inhibitor, single point] | –
7 | N#Cc1ccccc1S(=O)(=O)N1CCN(CC(O)c2ccccc2)CC1 (stereo not given) | inconclusive: 89.1 µM [inhibitor, single point] | –
8 | Cc1ccc(N=Nc2c(=O)[nH]n3c(=O)cc(C)[nH]c23)cc1 | inactive | –
9 | CCC(C)[C@H](NC(=O)N1CC(=O)Nc2ccccc21)C(=O)N1CCC[C@H]1C(=O)O (stereo not given in full) | inactive | –
10 | O=C(Cc1ccc(F)cc1)NC1CC(=O)N(c2ccc3c(c2)OCCO3)C1 (stereo not given) | inactive | –
11 | COc1ccc(OC)c2nc3c(C(=O)NCCN(C)C)cccc3nc12 | inconclusive: 56.2 µM [inhibitor, partial curve, poor fit] | –
12 | COc1ccc(C2=Nn3c(nnc3-c3ccccc3C(F)(F)F)SC2)cc1OC1CCOC1 (stereo not given) | inconclusive: 50.1 µM [inhibitor, partial curve, poor fit] | –
13 | Cc1cccc(CNc2ncnc3ccc(-c4ccc5c(c4)OCO5)cc23)c1 | inconclusive: 10 µM [inhibitor, partial curve, poor fit] | –
14 | O=C(O)c1cc(N2N=C(C(F)(F)F)/C(=C/C=C/c3ccco3)C2=O)ccc1Cl | active: 1.12 µM | –
15 | CC1(C)O[C@@H]2C[C@H]3[C@H]4C[C@H](F)C5=CC(=O)CC[C@]5(C)[C@@H]4[C@H](O)C[C@]3(C)[C@]2(C(=O)CO)O1 | – | inactive: -2.95% [at 19.4 µM]
16 | O/N=C1\CCC\C1=C/c1ccco1 | inconclusive: 89.1 µM [inhibitor, single point] | –
17 | COc1cc2c(C)c3c4c(cc(OC)c(OC)c4c2cc1OC)CCN3C | inconclusive: 3.16 µM [inhibitor, partial curve] | –
18 | COc1ccc(C2C=C(c3ccccc3)Nc3nc(NS(=O)(=O)c4ccccc4)nn32)cc1 (stereo not given) | inactive | –
19 | O=C(Nc1ccc(F)c(F)c1)c1cnn2c1NC(=C1CC1)C=C2C(F)(F)F | inactive | –
20 | COCCCNC(=S)NNC(=O)c1ccccn1 | inactive | –

Row | SMILES | Potency | activity, negative = inhibition
21 | CC1(C)OC(=O)C2(Cc3ccc(Br)cc3N3CCCCC32)C(=O)O1 (stereo not given) | inconclusive: 89.1 µM [inhibitor, partial curve, poor fit] | –
22 | Cc1cc2oc(C(=O)Nc3sc4c(c3C(=O)NCc3ccco3)CCC4)cc(=O)c2cc1C | inconclusive: 100 µM [inhibitor, single point] | –
23 | N=C1/C(=C\c2ccc(OC(=O)c3ccco3)cc2)C(=O)N=C2SC(N3CCCCC3)=NN12 | inconclusive: 31.6 µM [inhibitor, full curve, poor fit] | –
24 | COc1ccccc1OCCn1c(SCC(=O)O)nc2ccccc21 | active: 79.4 µM | –
25 | Cc1cccc(NC(=O)c2sc3ncnc(N(C)C4CCCCC4)c3c2C)c1C | inactive | –
26 | Cc1ccc(CSc2nnc(SCC(=O)N/N=C/C=C/c3ccco3)s2)cc1 | inconclusive: 89.1 µM [inhibitor, partial curve, poor fit] | –
27 | COc1ccc(N2CCN(Cc3nc4c(c(=O)[nH]c(=O)n4C)n3Cc3ccccc3C)CC2)cc1 | inactive | –
28 | COC(=O)/C=C/C(C)=C/C=C/C(C)=C/C=C/C=C(C)/C=C/C=C(C)/C=C/C(=O)O | active: 31.6 µM | –
29 | O=C(CCn1cncn1)N1CCCC(N2CCN(c3cccc(C(F)(F)F)c3)CC2)C1 (stereo not given) | inconclusive: 2.82 µM [inhibitor, full curve, poor fit] | –
30 | O=C(/C=C/c1ccco1)N(Cc1cccc(Br)c1)C1CCS(=O)(=O)C1 (stereo not given) | inactive | –
31 | Cc1c(N=C2C=C(Br)C(=O)C(Br)=C2)c(=O)n(-c2ccccc2)n1C | active: 79.4 µM | –
32 | COc1cc(-c2oc3cc(O)cc(O)c3c(=O)c2O[C@@H]2O[C@H](COC3O[C@@H](C)[C@H](O)[C@@H](O)[C@H]3O)[C@@H](O)[C@H](O)[C@H]2O)ccc1O (stereo not given in full) | inactive | –
33 | CCn1c(COc2ccc(Cl)cc2Cl)nc2ccccc21 | inactive | –
34 | CC(C(=O)Nc1cc([N+](=O)[O-])ccc1Cl)N1CCN(c2ccc(O)cc2)CC1 (stereo not given) | inconclusive: 89.1 µM [inhibitor, single point] | –
35 | COc1ccc(CNC(=O)CCS(=O)(=O)c2ccc(Br)cc2)cc1 | inconclusive: 100 µM [inhibitor, single point] | –
36 | O=C(NC1CCCCC1)C(c1ccccn1)N(C(=O)c1csnn1)c1ccccc1 (stereo not given) | inactive | –
37 | CCOc1ccc(N/C(C)=C/C(=O)c2ccc3c(c2)OCCO3)cc1 | inconclusive: 89.1 µM [inhibitor, partial curve] | –
38 | C/C(=N\Nc1cccc(C(=O)O)c1)c1ccc(Cl)s1 | active: 70.8 µM | –
39 | COc1ccc(NC(=O)/C(Cl)=C(/Cl)S(=O)(=O)Cc2ccc(C)cc2)cn1 | inactive | –
40 | Cc1ccc(NC(=O)COc2cccc(/C=C3\SC(=S)N(CCC(=O)O)C3=O)c2)cc1Cl | active: 79.4 µM | –
